Test results: PubChem BioAssay AID651820 (National Center for Advancing Translational Sciences (NCATS), 2012)
Hit rate of the full screen: of about 340,000 compounds, about 12,000 (3.5%) were called active. Inconclusive means that the source gave no clear call. Such entries were picked first, then a sample of the others. The call rests on the fitted dose curve; in most records, active means well fitted inhibition curve with a large enough effect; inconclusive means small, poorly fitted or top-dose-only effect, or another doubt; inactive means no such curve, though single readings can be large or run the other way. No potency is given beside an inconclusive call; the fits are too rough.

Test: qHTS Assay for Inhibitors of Hepatitis C Virus (HCV)
Settings: Huh7.5.1 HCVcc-Cre (HCVcc is cell-culture hepatitis C virus) infection, luciferase reporter, 44 h; activity change, negative = inhibition: at 41.8 µM (top of the series) unless noted
In short: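 Cells seeded at 1,000/well and cultured 4 h, then compounds added followed by HCVcc-Cre virus (~0.5 moi). After 44 h further culture, luciferase substrate was added, plates held 15 min at room temperature, and luminescence read for 15 sec.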
On the % scale 0 is the no-effect control and ±100 the full control effect; potency means the concentration at half of the fitted maximal effect; tags describe the fitted curve by direction and shape.

SMILES	Potency	activity change, negative = inhibition
Cc1ccccc1C1C(C#N)=C2N=C(N)c3c(sc4c3CCCCC4)N2C2=C1C(=O)CCC2 (centres undefined)	inconclusive [inhibitor, partial curve]	–
Cc1ccc(S(=O)(=O)CCc2nnc(N)s2)cc1C	–	inactive: 9.44%
OC(COc1ccc2c(c1)CCC2)CN1CCN(c2cccc(Cl)c2)CC1 (centres undefined)	inconclusive [inhibitor, single point]	–
Cc1cc2c(cc(C(=O)OC(C(=O)NCc3ccco3)C(C)C)n2C)o1 (centres undefined)	inconclusive [inhibitor, single point]	–
C/C(=N\NC(=S)NC1CCCCC1)c1c(F)cccc1F	inconclusive [inhibitor, partial curve]	–
CCOc1ccc(/C=C/C(=O)c2c(O)cc(C)oc2=O)cc1	–	inactive: -5.75%
COc1ccccc1N1CCN(C(=O)c2cccc(N3C(=O)NC4CC3(C)Oc3c(OC)cccc34)c2)CC1 (centres undefined)	–	inactive: 26%
CC(C)c1nc(SCC(=O)Nc2ccc(N(C)C)cc2)c2ccccc2n1	inconclusive [inhibitor, single point]	–
COc1cc(OC)c(N(C)C(=O)c2cc3c(s2)-c2ccccc2S(=O)(=O)C3)cc1Cl	active: 22.4 µM	–
COc1ccccc1OCC(=O)N/N=C/C=C/c1ccc([N+](=O)[O-])o1	inconclusive [inhibitor, partial curve]	–
FC(F)Sc1ccc(NC(=S)NC2CCCCC2)cc1	inconclusive [inhibitor, single point]	–
CCOC(=O)c1cc(-c2ccc(F)cc2)nc2c1c(=O)[nH]c(=O)n2Cc1ccccc1	inconclusive [inhibitor, single point]	–
CNC(=O)c1c(Cl)cnn1-c1ccc(F)cc1	–	inactive: 21.4%
COC(=O)c1cc(S(=O)(=O)N2CCC(c3cc(OC)ccc3OC)C2)c[nH]1 (centres undefined)	active: 6.31 µM	–
O=C(c1cc(C(=O)N2CCN(c3ccc(F)cc3)CC2)cc([N+](=O)[O-])c1)N1CCN(c2ccc(F)cc2)CC1	inconclusive [inhibitor, full curve]	–
C=CCOc1nc(-c2ccncc2)nc2ccccc12	active: 5.01 µM	–
CS(=O)(=O)Cc1cc(N2CCCC2)nc(-c2ccccc2)n1	–	inactive: -3.54%
CCC(Oc1ccccc1)C(=O)Nc1ccc(-c2nnc(-c3ccco3)o2)cc1 (centres undefined)	inconclusive [inhibitor, partial curve]	–
CCCN(CC(=O)Nc1ccccc1OC)C(=O)c1cc(-c2ccccc2)nn1-c1ccccc1	active: 11.2 µM	–
O=C(Nc1ccc2c(c1)OCO2)Nc1ccc(F)cc1F	inconclusive [inhibitor, single point]	–
O=[N+]([O-])c1cc(Cl)cc(C2=NCCN2)c1	active: 8.91 µM	–
Cc1cc(C)n(CC(=O)Nc2cccc(C(F)(F)F)c2)n1	–	inactive: -23.5%

SMILES	Potency	activity change, negative = inhibition
CCCc1[nH]nc2c1C(c1ccc(OCCN3CCOCC3)c(OCC)c1)C(C#N)=C(N)O2 (centres undefined)	inactive	–
Cc1ccc(-c2noc(CCC(=O)Nc3cccc(C#N)c3)n2)cc1	inconclusive [inhibitor, partial curve]	–
CN(C(=O)CSc1nnc(-c2ccc3c(c2)OCO3)o1)C1CCS(=O)(=O)C1 (centres undefined)	inconclusive [inhibitor, single point]	–
CN(C)c1nc(NC(C)(C)C)nc(SCC(=O)Nc2ccccc2)n1	inconclusive [inhibitor, partial curve]	–
COC(=O)C1=C(C(=O)OC)SC2(S1)C(C(=O)OC)=C(C(=O)OC)Sc1c2ssc1=O	inconclusive [inhibitor, full curve]	–
CCc1c(C)sc(NC(=S)N2CC(C)OC(C)C2)c1C(=O)OC (centres undefined)	inconclusive [inhibitor, single point]	–
Cc1ccc(/C=C2\CCC3=C2OC(N)=C(C#N)C3c2ccc(C)cc2)cc1 (centres undefined)	inconclusive [inhibitor, single point]	–
O=C(NCCCn1ccnc1)c1ccccc1F	inconclusive [inhibitor, partial curve]	–
O=C(COC(=O)c1ccc(S(=O)(=O)N2CCCCC2)cc1)NCc1ccccc1	–	inactive: 29.8%
COc1cccc(/C=N/NC(=O)c2ccc([N+](=O)[O-])cc2Cl)c1O	inconclusive [inhibitor, full curve]	–
CCN(CC)S(=O)(=O)c1ccc(C(C)NCC(=O)Nc2ccccc2C(=O)NC2CC2)cc1 (centres undefined)	inconclusive [inhibitor, single point]	–
COc1ccccc1COC(=O)c1ccc(S(=O)(=O)N2CCOCC2)cc1	–	inactive: -11.1%
CC(=O)N1c2ccc(S(=O)(=O)N3CCC(C(=O)Nc4ccc(F)cc4)CC3)cc2CC1C (centres undefined)	active: 11.2 µM	–
COc1cc(C2NC(=S)NC(O)(C(F)(F)F)C2C(=O)c2cccs2)cc(OC)c1O (centres undefined)	–	inactive: 5.35%
CCCCN(CCCNC(=O)C1CCN(S(=O)(=O)N2CCOCC2)CC1)c1ccccc1	inconclusive [inhibitor, single point]	–
Cc1c(OC(C)C(=O)NCCN2CCOCC2)ccc2c3c(c(=O)oc12)CCCC3 (centres undefined)	inconclusive [inhibitor, partial curve]	–
Cc1ccc([C@@H]2[C@@H]3C(=O)N(c4ccccc4)C(=O)[C@@H]3[C@]3(C)C(=O)N(CC4CC4)CC(=O)N23)o1	–	inactive: 0.624%
COc1ccc(NC(=O)Cc2coc3cc(C)c(C(C)C)cc23)cc1S(=O)(=O)N1CCOCC1	active: 7.08 µM	–
CCN(c1ccccc1)S(=O)(=O)c1cc(C(=O)NCC(c2ccco2)N2CCCCC2)ccc1C (centres undefined)	inconclusive [inhibitor, partial curve, poor fit]	–
N#Cc1c(SCC(N)=O)nc2c(c1-c1ccc(O)cc1)CCCC2	inconclusive [inhibitor, partial curve]	–
Cn1ncc(Br)c1C(=O)OCC(=O)Nc1nc(-c2ccccc2)cs1	inconclusive [inhibitor, single point]	–
CCOc1ccccc1NC(=O)c1ccccc1-c1nc(-c2ccccc2OC)no1	active: 11.2 µM	–
